The other results are listed elsewhere or left out. The energies were worked out here from pooled read counts, against the library average; single values are noisy.
target: T1, Pho4 (S. cerevisiae) (UniProt P07270); experiment: relative binding free energy (BET-seq); higher = weaker binding; conditions: reference: library average
T1 sequence: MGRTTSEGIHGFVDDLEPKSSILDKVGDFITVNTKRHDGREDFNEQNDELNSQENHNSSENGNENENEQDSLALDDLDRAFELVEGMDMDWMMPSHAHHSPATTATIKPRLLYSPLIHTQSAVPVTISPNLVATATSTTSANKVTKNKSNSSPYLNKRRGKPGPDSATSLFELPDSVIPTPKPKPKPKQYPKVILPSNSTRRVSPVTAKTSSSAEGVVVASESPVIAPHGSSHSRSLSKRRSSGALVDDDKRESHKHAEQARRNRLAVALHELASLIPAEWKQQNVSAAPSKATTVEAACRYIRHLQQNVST

Sequence | relative binding free energy [kcal/mol]
TGTTGCACGTGAGATA | 0.19
GTATTCACGTGCATTA | 0.17
TTTAACACGTGTATTA | -0.03
GGGTGCACGTGTCGTG | 0.02
GCAGTCACGTGAGGGA | 0.29
TAACTCACGTGGGGAG | 0.24
GGGGGCACGTGATCGA | -0.12
CTTTGCACGTGTATTA | 0.01
TCTTACACGTGTGTGT | 0.2
TTTGCCACGTGTGCAT | -0.03
GTTGACACGTGTATGT | 0.08
ATTAACACGTGGAGTA | 0.05
GTTGTCACGTGCTGAA | 0.02
TCTTTCACGTGATGGT | 0.32
GTCTACACGTGGGTGT | 0.02
CTTCGCACGTGTGGGG | -0.05
CTGGTCACGTGCAGTG | 0.15
ACGTGCACGTGGGTAG | -0.13
GTTATCACGTGTCGGT | 0.23
AGTGACACGTGTGGGT | 0.02
TTAGGCACGTGTCATA | -0.11
TATTACACGTGATTGG | 0.23
ATTAACACGTGGTGTA | -0.08

Sequence | relative binding free energy [kcal/mol]
TATTGCACGTGCGTGG | -0.1
GAGTCCACGTGGGCGG | 0.03
GCTCTCACGTGTTTGT | 0.28
GTGTTCACGTGCAGCG | 0.42
TAAATCACGTGGAGAG | 0.16
TTTATCACGTGGACTT | 0.06
CTTTGCACGTGGGCAA | -0.07
AGGTTCACGTGATGAA | 0.38
GTGTGCACGTGCCTGT | 0.06
GGAGGCACGTGAGCGG | 0.13
TGGGTCACGTGGTCCA | 0
TTACTCACGTGGGGGT | 0.06
AAGTGCACGTGGAGGT | -0.09
AATCTCACGTGTATGG | 0.24
TTGGTCACGTGCGTTT | 0.12
GAAGTCACGTGTGTAT | 0.21
ATTTTCACGTGCTTAT | 0.2
GGTGACACGTGTAGTT | 0.22
AGGTTCACGTGCCGTG | 0.1
TAGGCCACGTGGAGGA | -0.06
GGTTCCACGTGAAGGG | 0.27
TTTTACACGTGTGAGA | 0.16
CTGGGCACGTGGCAAT | -0.06

Sequence | relative binding free energy [kcal/mol]
ATGTACACGTGATTAT | 0.26
GTGGGCACGTGAGATC | 0.28
TTTTCCACGTGGATGT | 0.02
CTAGTCACGTGGGTGG | -0.06
AGTAACACGTGACGTG | 0.03
AATGACACGTGTGAGG | 0.12
GAAGACACGTGGGGTC | -0.03
TAGATCACGTGCTAGT | 0.07
TGCGGCACGTGCGGAG | -0.25
AAGGGCACGTGAGTGG | 0.07
AACGACACGTGAGTGG | 0.27
TATAGCACGTGGGGTC | -0.12
GTTTGCACGTGGCTAT | -0.01
ATTTTCACGTGTACGT | 0.26
TTTTTCACGTGGCGCG | 0.03
GGGCTCACGTGGGTCT | 0.31
TGTTCCACGTGACGGT | 0.13
TGGCTCACGTGTTGGC | 0.21
CGTATCACGTGGTTGC | 0.03
TCATGCACGTGTACGG | 0.12
CGGGTCACGTGATTAT | 0.2
GTTTGCACGTGTGCTA | 0
ATGGCCACGTGTATGG | 0.01

Sequence | relative binding free energy [kcal/mol]
TTGATCACGTGGGCCT | 0.08
CGCTGCACGTGAGAGG | 0.29
GGGGGCACGTGGAGGA | -0.15
GTTTGCACGTGGAGAG | 0.19
TAATTCACGTGGATCT | 0.29
TGTGTCACGTGGCTCT | -0.06
ATGTACACGTGTTGAG | -0.03
AGCTTCACGTGTGAGG | 0.32
GCGGCCACGTGGGTGC | -0.11
TTTGTCACGTGCGAGT | 0.2
GAAAACACGTGTGTTG | 0.02
GTGTGCACGTGGTGTC | 0.04
ACTTTCACGTGATGTT | 0.23
AGTAGCACGTGCTGCG | -0.06
AAGTACACGTGGATGG | 0.12
CGGGACACGTGTGTAG | -0.02
TTGCGCACGTGCGTGG | -0.29
GTGCTCACGTGTTTGG | 0.28
AATAACACGTGTGTAT | 0.06
GTTATCACGTGAAAAT | 0.53
TGCTTCACGTGGATGT | 0.11
TTTAGCACGTGGCGGG | -0.16
AAGTTCACGTGCGATG | 0.19

Sequence | relative binding free energy [kcal/mol]
GCCGACACGTGGGTGG | 0.03
GGTTACACGTGAGTCG | 0.32
TTAAACACGTGGTGAG | -0.02
GATCTCACGTGGGTGT | 0.06
ACAGCCACGTGTGGGG | 0
CGAAACACGTGGTGTA | -0.05
TAGGCCACGTGAAGGG | 0.15
GGTAGCACGTGACGTT | 0.09
TGGTGCACGTGATCGA | 0.09
CTAGACACGTGCTGGG | 0.08
GTGAGCACGTGTTACG | -0.02
CGTATCACGTGTATGA | 0.17
GCGAGCACGTGGGATT | 0.06
GTGTGCACGTGTGTGG | 0.1
AAGTGCACGTGCGTAG | -0.05
AGTTGCACGTGGAGCA | -0.05
AGTTTCACGTGTAGAA | 0.3
GTGGTCACGTGGGTAA | 0.03
TGGCGCACGTGTATTG | -0.08
CAGGGCACGTGTTGTC | 0.04
TGGCTCACGTGAGAAG | 0.53
CGTTTCACGTGAGTTA | 0.21
GTCACCACGTGGGGGG | -0.11

Source: the BET-seq Pho4 binding data (Le et al. 2018)
